Molecular target: MRCKa (Homo sapiens (Human), UniProt Q5VT25)
Assay: Radioisotope filter binding kinase assay
Type: biochemical
Conditions: 10 uM ATP, read-out: IC50 estimates, MRCKa
Description: Experiment was conducted by Absorption Systems. […] The radioisotope filter binding assay is considered the gold standard for kinase profiling. The assay directly detects the true product without the use of modified substrates, coupling enzymes, or detection antibodies. Compounds are incubated with kinase, substrate, cofactors, and radioisotope-labeled ATP (^33P-Y-ATP). The reaction mixtures are then spotted onto filter papers, which bind the radioisotope-labeled catalytic product. Unreacted phosphate is removed via washing of the filter papers.
• Prepare kinase-specific substrate in freshly prepared Base Reaction Buffer (20 mM Hepes (pH 7.5), 10 mM MgCl2, 1 mM EGTA, 0.02% Brij35, 0.02 mg/ml BSA, 0.1 mM Na3VO4, 2 mM DTT, 10 µM ATP, and 1% DMSO). • Add kinase enzyme into the substrate solution and gently mix. • Add compounds in DMSO into the kinase reaction mixture by Acoustic technology (Echo550; nanoliter range), incubate for 20 minutes at room temperature. • Add ^33P-ATP (specific activity 10 μCi/μl)) into the reaction mixture to initiate the reaction. • Incubate kinase reaction for 2 hours at room temperature. • Spot reactions onto P81 ion exchange paper. • Detect kinase activity by filter-binding method.

Sequence of UniProt Q5VT25 (Q5VT25 whole entry): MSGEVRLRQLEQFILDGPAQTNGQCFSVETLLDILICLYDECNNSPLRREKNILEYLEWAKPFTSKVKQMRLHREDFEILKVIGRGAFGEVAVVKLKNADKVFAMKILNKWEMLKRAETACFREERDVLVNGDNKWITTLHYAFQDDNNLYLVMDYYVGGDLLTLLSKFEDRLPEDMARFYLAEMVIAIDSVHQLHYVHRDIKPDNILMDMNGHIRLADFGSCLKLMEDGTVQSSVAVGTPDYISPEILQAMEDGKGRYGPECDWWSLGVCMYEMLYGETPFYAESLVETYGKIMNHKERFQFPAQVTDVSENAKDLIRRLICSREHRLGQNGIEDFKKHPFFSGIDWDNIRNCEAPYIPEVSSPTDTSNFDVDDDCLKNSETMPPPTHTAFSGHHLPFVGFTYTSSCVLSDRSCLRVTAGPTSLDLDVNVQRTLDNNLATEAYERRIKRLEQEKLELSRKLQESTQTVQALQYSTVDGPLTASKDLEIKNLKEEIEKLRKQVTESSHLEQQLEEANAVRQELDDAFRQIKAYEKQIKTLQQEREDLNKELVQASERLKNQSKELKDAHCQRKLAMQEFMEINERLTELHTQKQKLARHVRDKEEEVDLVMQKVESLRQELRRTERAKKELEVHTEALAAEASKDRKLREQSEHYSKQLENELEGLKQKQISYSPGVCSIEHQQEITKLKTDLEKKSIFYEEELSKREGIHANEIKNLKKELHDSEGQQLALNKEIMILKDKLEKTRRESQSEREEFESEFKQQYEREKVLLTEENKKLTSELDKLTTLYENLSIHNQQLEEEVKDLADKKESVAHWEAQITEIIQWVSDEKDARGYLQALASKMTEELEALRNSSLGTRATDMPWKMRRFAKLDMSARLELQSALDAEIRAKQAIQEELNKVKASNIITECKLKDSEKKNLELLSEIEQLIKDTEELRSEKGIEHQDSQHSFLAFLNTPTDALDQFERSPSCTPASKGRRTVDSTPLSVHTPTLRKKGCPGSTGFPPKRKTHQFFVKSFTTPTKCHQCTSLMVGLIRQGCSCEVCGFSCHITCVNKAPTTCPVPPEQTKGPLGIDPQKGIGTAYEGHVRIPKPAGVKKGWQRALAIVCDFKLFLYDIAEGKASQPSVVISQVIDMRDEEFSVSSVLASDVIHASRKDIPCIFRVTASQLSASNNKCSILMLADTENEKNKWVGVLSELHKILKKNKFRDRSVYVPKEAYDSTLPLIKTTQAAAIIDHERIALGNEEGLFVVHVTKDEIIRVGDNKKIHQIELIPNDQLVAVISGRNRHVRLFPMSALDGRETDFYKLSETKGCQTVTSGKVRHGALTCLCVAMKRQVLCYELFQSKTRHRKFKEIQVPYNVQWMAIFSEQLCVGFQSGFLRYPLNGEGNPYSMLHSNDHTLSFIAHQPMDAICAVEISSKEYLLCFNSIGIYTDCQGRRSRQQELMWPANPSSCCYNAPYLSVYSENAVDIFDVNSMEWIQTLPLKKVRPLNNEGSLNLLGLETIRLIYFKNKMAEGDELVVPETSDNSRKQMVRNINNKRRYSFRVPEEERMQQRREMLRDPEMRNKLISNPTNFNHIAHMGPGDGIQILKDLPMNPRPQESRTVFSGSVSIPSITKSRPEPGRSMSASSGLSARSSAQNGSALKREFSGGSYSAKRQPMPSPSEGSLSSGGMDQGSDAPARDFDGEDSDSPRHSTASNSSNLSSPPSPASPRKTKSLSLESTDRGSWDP

Row | SMILES | IC50 [µM]
1 | Cl.Cl.NCC(C(=O)Nc1ccc2cnccc2c1)c1ccc(B(O)O)cc1 (centres unmarked) [Compound 10•2HCl] | > 10
2 | Cc1ccc(C(=O)OCc2ccc([C@@H](CN)C(=O)Nc3ccc4cnccc4c3)cc2)c(C)c1 [Netarsudil dimesylate] | > 10

— patent US12479866B2, “Boron-containing rho kinase inhibitors” (Percipiad, Inc., priority 2019, dated 2025)
